Measured values from PubChem BioAssay AID588453 (National Center for Advancing Translational Sciences (NCATS), 2011).
In all, about 390,000 compounds went through this assay and about 4,000 (1%) were called active. The shares of active, inactive and inconclusive entries below differ from those in the screen. Calls come from the whole dose curve; as a rule, active = well fitted inhibition curve with a large enough effect; inconclusive = small, poorly fitted or top-dose-only effect; inactive = no such curve, though single readings can be large or run the other way. Potencies beside an inconclusive call are fits to weak or partial responses and may not hold up.

molecular target: Thioredoxin reductase 1, cytoplasmic (Rattus norvegicus) (UniProt O89049); assay: qHTS Assay for Inhibitors of Mammalian Selenoprotein Thioredoxin Reductase 1 (TrxR1): qHTS; conditions: recombinant rTrxR1, NADPH fluorescence consumption, selenite substrate; series mostly up to 114 µM; activity change, negative = inhibition: at the top concentration; note: nearly all actives have a fitted effect of over 65% in size
In short: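 Rat TrxR1 (90 nM in the dispensed reagent) was pre-reduced with 400 uM NADPH for 5 min at room temperature, then incubated with compound for 15 min. After 400 uM selenite was added, NADPH fluorescence (Ex 340/Em 450 nm) was followed for 8 min.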
% is set by controls: 0 for no effect and ±100 for the full control effect; potency is the fitted concentration of half-maximal effect; tags give direction and shape of the fitted curve.

Sequence of UniProt O89049 (O89049 whole entry, looked up): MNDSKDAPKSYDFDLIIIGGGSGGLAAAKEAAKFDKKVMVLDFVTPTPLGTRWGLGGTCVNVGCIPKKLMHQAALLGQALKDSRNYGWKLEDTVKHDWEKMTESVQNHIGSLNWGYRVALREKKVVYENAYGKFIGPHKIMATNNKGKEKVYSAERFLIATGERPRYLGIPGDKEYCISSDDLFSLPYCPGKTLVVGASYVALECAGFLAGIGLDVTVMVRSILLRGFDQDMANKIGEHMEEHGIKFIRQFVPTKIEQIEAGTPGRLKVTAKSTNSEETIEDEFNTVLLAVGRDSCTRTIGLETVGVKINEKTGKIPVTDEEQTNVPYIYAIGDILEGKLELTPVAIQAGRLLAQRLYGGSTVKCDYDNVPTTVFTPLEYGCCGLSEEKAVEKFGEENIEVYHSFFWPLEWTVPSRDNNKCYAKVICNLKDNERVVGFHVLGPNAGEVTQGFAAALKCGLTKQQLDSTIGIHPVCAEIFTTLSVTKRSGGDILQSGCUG

Structure (SMILES) | Potency | activity change, negative = inhibition
Cc1cc2cc(C(c3nnnn3Cc3ccco3)N3CCc4ccccc4C3)c(=O)[nH]c2cc1C (stereo unspecified) | inconclusive: 22.4 µM [inhibitor, partial curve, poor fit] | –
CCNC(=O)c1ccc(C2SCC(=O)N2Cc2ccco2)cc1 (stereo unspecified) | inconclusive: 39.8 µM [inhibitor, single point] | –
O=C(N1CCCCCC1)N1CCN(S(=O)(=O)c2cccc([N+](=O)[O-])c2)CC1 | inconclusive: 89.1 µM [inhibitor, partial curve, poor fit] | –
CCCOC(=O)c1cc(-c2ccc(/C=C3/C(=O)N(C)C(=O)C(C#N)=C3C)o2)ccc1Cl | active: 17.8 µM | –
Cc1cc(C)c2nc(-c3ccccn3)cc(C(=O)Nc3ccc(S(=O)(=O)Nc4cc(C)on4)cc3)c2c1 | inconclusive: 79.4 µM [inhibitor, single point] | –
CNC[C@@H]1Oc2c(NC(=O)Nc3ccc(F)cc3)cccc2C(=O)N([C@H](C)CO)C[C@@H]1C | inconclusive: 79.4 µM [inhibitor, single point] | –
CCCOc1ccc(C(=O)NC(=S)Nc2nc(C)c(C(=O)N(C)C)s2)cc1 | inconclusive: 11.2 µM [inhibitor, full curve] | –
Oc1c(CN2CCOCC2)cc(COCc2ccccc2)c2cccnc12 | inconclusive: 79.4 µM [inhibitor, single point] | –
[Cl][In]([Cl])[Cl] | – | inactive: 11.6%
Cc1csc2nc(COC(=O)c3ccc(NC(=O)C(C)Oc4ccccc4)cc3)cc(=O)n12 (stereo unspecified) | – | inactive: 11.3% [at 57.1 µM]
O=c1cc(-c2ccccc2)n(S(=O)(=O)c2ccc3ccccc3c2)o1 | inconclusive: 70.8 µM [inhibitor, single point] | –
CCOc1ccc(NC(=O)C(c2ccccn2)N(C(=O)CCl)c2ccc(OCC)cc2)cc1 (stereo unspecified) | active: 79.4 µM | –
CN(Cc1c(F)cccc1Cl)C(=O)CNC(=O)c1cccs1 | – | inactive: 7.5%
C#CCN(C1CCCC1)S(=O)(=O)C=C | inconclusive: 70.8 µM [inhibitor, single point] | –
CCC(=O)Nc1cccc(-c2ccc(N3CCCCC3)nn2)c1 | – | inactive: 16.4%
Cc1ccccc1OCC(=O)Nc1ccccc1OCc1cc(=O)n2ccccc2n1 | – | inactive: 14.8% [at 57.1 µM]
CC(=O)N1N=C(c2ccco2)CC1c1cccs1 (stereo unspecified) | inconclusive: 11.2 µM [inhibitor, partial curve, poor fit] | –
O=C1C(Cl)=C(Nc2ccc(O)cc2)C(=O)c2ccccc21 | inconclusive: 14.1 µM [inhibitor, full curve, poor fit] | –
CCOC(=O)c1c(NS(=O)(=O)c2cccc(OC)c2)sc2c1CCC2 | inconclusive: 15.8 µM [inhibitor, full curve] | –
CCc1cccc(NC(=S)Nc2ccc(CN3CCOCC3)cc2)c1 | inconclusive: 3.98 µM [inhibitor, full curve] | –
O=[N+]([O-])c1ccc2c(c1Nc1ccccc1)=NC1(CCCCC1)N=2 | – | inactive: 2.55%
CCN1CCCc2cc(CN(CCN3CCOCC3)C(=O)Nc3ccc(C)c(C)c3)ccc21 | – | inactive: -16.9%
COc1ccc2oc(/C=C/N(C)C)c(C(=O)c3ccc(Cl)cc3)c2c1 | inconclusive: 89.1 µM [inhibitor, partial curve, poor fit] | –
CC1=CSC2=NS(=O)(=O)CCN12 | – | inactive: 1.86%

Structure (SMILES) | Potency | activity change, negative = inhibition
Cc1ccccc1NC(=O)C1Cc2ccccc2CN1C(=O)c1ccco1 (stereo unspecified) | inconclusive: 50.1 µM [inhibitor, partial curve, poor fit] | –
COc1cccc(-c2nc(=S)c3c(n2CCCO)CCCC3)c1 | inconclusive: 22.4 µM [inhibitor, full curve] | –
O=C(NCCO)c1ccc2nc(-c3ccco3)c(-c3ccco3)nc2c1 | active: 8.91 µM | –
CCN(CCO)C1CC(=O)N(c2ccccc2C)C1=O (stereo unspecified) | active: 50.1 µM | –
Cc1n[nH]c(C)c1S(=O)(=O)N1CCN(S(=O)(=O)c2ccccc2C#N)CC1 | – | inactive: 21.2%
Cn1c(=O)c2[nH]c(=S)n(Cc3ccccc3)c2n(C)c1=O | inconclusive: 12.6 µM [inhibitor, partial curve] | –
O=C(CN1CCCC1)Nc1ccc(-c2nc3cc(NC(=O)CN4CCCC4)ccc3o2)cc1 | inconclusive: 70.8 µM [inhibitor, single point] | –
CCOc1cc(C(=O)NC(=S)Nc2ccc(Cl)c(C(=O)O)c2)cc(OCC)c1OCC | inconclusive: 35.5 µM [inhibitor, full curve] | –
Cc1ccc(-n2c(N)c(C(N)=O)sc2=S)cc1 | inconclusive: 12.6 µM [inhibitor, partial curve, poor fit] | –
O=C1CNC(=S)N1CCc1ccc(O)c(O)c1 | inconclusive: 25.1 µM [inhibitor, full curve] | –
C#CC(=O)N(c1ccc(OC)cc1OC)C(C(=O)NC1CCCC1)c1cccs1 (stereo unspecified) | inconclusive: 3.55 µM [inhibitor, full curve] | –
COc1ccc(N(C(=O)Cn2nnc3ccccc32)C(C(=O)NCc2ccccc2)c2ccc(F)cc2)cc1 (stereo unspecified) | – | inactive: 17.2%
Cn1c(=O)c2c(nc(SCC(=O)Nc3ccc(F)c(F)c3)n2Cc2ccccc2F)n(C)c1=O | – | inactive: 9.84%
COC(=O)c1cccnc1NC(=S)NNC(=O)c1ccncc1 | inconclusive: 70.8 µM [inhibitor, single point] | –
COCCCNC(=S)Nc1ccc2c(c1)OCCO2 | inconclusive: 25.1 µM [inhibitor, single point] | –
CN(C)CCCN(C(=O)c1ccc([N+](=O)[O-])o1)c1nc2cc3c(cc2s1)OCO3 | active: 50.1 µM | –
O=C(COc1ccccc1[N+](=O)[O-])N/N=C/c1ccccn1 | – | inactive: 13.6%
O=C1c2ccc3c4c(ccc(c24)C(=O)N1NC(=O)C(F)(F)F)CC3 | – | inactive: 9.27%
COc1ccc(C(=O)COc2ncnc3cc(Cl)ccc23)cc1 | inconclusive: 79.4 µM [inhibitor, single point] | –
Cc1cc(O)c(C(c2ccccc2)N2CCN(c3ccccc3)CC2)c(=O)n1Cc1ccco1 (stereo unspecified) | inconclusive: 7.08 µM [inhibitor, partial curve] | –
O=C(Oc1cccc2cccnc12)c1ccco1 | – | inactive: 2.14%
O=C(/C=C/c1ccccc1)/C=C/c1ccccc1 | active: 56.2 µM | –
O=C(O)c1cc([N+](=O)[O-])c(Sc2nc3ccccc3[nH]2)c([N+](=O)[O-])c1 | inconclusive: 2.51 µM [inhibitor, full curve, poor fit] | –
CCc1cccc(C)c1NC(=O)CCCn1c(C)c2cnn(-c3ccccc3)c(=O)c2c1C | inconclusive: 35.5 µM [inhibitor, partial curve, poor fit] | –

Structure (SMILES) | Potency | activity change, negative = inhibition
Nc1ccccc1N1C(=O)c2cccc3cccc(c23)C1=O | – | inactive: 12%
Cc1nc([N+](=O)[O-])cn1-c1nc2ccccn2c1[N+](=O)[O-] | inconclusive: 50.1 µM [inhibitor, partial curve] | –
Cc1cccc(Nc2ncnc(N)n2)c1 | – | inactive: 17.1% [at 57.1 µM]
Oc1ccccc1/C=N/c1c(-c2ccco2)nc2ccccn12 | active: 79.4 µM | –
COC(=O)c1cc(NC(=S)NC(=O)c2ccccc2)ccc1N1CCOCC1 | active: 28.2 µM | –
Cc1cc(NS(=O)(=O)c2ccc(NC(=O)/C=C/c3ccc(C)o3)cc2)nc(C)n1 | active: 28.2 µM | –
O=C(C1=C(O)C(=O)N(CCN2CCOCC2)C1c1cccc(O)c1)c1cc2ccccc2o1 (stereo unspecified) | active: 50.1 µM | –
CCOC(=O)C(CC)Sc1ncnc2c1c(-c1ccccc1)cn2-c1ccc(OC)cc1 (stereo unspecified) | – | inactive: 24.2%
Nc1nnc(CC(=O)N/N=C/c2ccc(-c3cccc(C(=O)O)c3)o2)s1 | inconclusive: 44.7 µM [inhibitor, partial curve, poor fit] | –
Cc1cnc(C(=O)Oc2cccc(Cl)c2Cl)cn1 | inconclusive: 14.1 µM [inhibitor, full curve, poor fit] | –
CCCCNC(=O)Nc1nc(SCC(=O)OCC)n[nH]1 | inconclusive: 31.6 µM [inhibitor, single point] | –
O=C(NC(Cc1ccccc1)C(=O)O)/C(=C\c1ccco1)NC(=O)c1ccc(Br)cc1 (stereo unspecified) | inconclusive: 44.7 µM [inhibitor, partial curve] | –
CCCNC(=O)c1noc2c1CCc1ccccc1-2 | inconclusive: 56.2 µM [inhibitor, partial curve, poor fit] | –
c1ccc(-c2nnc(-c3ccco3)n2-c2ccccc2)cc1 | inconclusive: 50.1 µM [inhibitor, partial curve] | –
CCOc1ccc(CCNC(=O)c2c(C)oc3ncn(CC(C)C)c(=O)c23)cc1 | – | inactive: 18.5%
CCN1CCN(C2=C(NS(=O)(=O)c3ccc(Br)cc3)C(=O)c3ccccc3C2=O)CC1 | inconclusive: 89.1 µM [inhibitor, single point] | –
O=C(NC1CS(=O)(=O)CC1NCc1ccco1)c1ccccc1 (stereo unspecified) | inconclusive: 3.98 µM [inhibitor, partial curve] | –
Cc1cc(Cl)ccc1NC(=S)Nc1ccccn1 | inconclusive: 7.94 µM [inhibitor, partial curve, poor fit] | –
O=C(CSc1nnc(Cc2ccccc2)n1Cc1ccco1)NC1CCCC1 | inconclusive: 50.1 µM [inhibitor, partial curve, poor fit] | –
Cc1cc(C)cc(NC(=O)c2cc(C)nc3c2c(C)nn3-c2ccccc2)c1 | active: 79.4 µM | –
COc1ccc(CCn2c3c(c(=O)[nH]c2=S)CN(C(C)C)CN3)cc1OC | inconclusive: 89.1 µM [inhibitor, single point] | –
CCN(CC)CCNC(=O)Cn1nc(Cc2ccccc2)c2ccccc2c1=O | inconclusive: 44.7 µM [inhibitor, single point] | –
O=C(c1ccoc1)N1CCC2(CC1)Oc1ccc(F)cc1C(=O)C21CC(c2ccc(Cl)cc2)=NO1 (stereo unspecified) | active: 70.8 µM | –
